For 25 compounds, activation results are on record in PubChem BioAssay AID1346428 (National Center for Advancing Translational Sciences (NCATS), 2018).

“And” between values parts separate entries of the source, which are not always exact repeats. Equal entries are not always repeated. In all, about 48,000 compounds went through this assay and about 1,200 (2.5%) were called active. Roughly 2% stayed inconclusive and do not appear here.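 How the source made its calls: active means activation of at least 60% and not above a set upper limit (about 1 call in 100 departs from these limits); inconclusive means activation of 40% to 60%, or above that upper limit; inactive means activation under 40%.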 The list shows a part of the results.

For the assay, the target named is Probable G-protein coupled receptor 32 (Homo sapiens) (UniProt O75388). The assay is described as follows: qHTS for Agonists of Human Resolvin D1 Receptor DRV1. Further: 0% is about no effect. The conditions noted are these: CHO-K1 GPR32 beta-arrestin PathHunter luminescence, 90 min; at 76.9 µM; hits give high values; zero percent set by DMSO-only wells. The gist of the method: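 PathHunter beta-arrestin recruitment in CHO-K1 cells stably expressing ProLink-tagged GPR32. Cells were exposed to compound for 90 min at 37 C, then chemiluminescence was read after 1 h detection at ambient temperature; DMSO served as basal control.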
Chain of UniProt O75388 (O75388 whole entry, looked up): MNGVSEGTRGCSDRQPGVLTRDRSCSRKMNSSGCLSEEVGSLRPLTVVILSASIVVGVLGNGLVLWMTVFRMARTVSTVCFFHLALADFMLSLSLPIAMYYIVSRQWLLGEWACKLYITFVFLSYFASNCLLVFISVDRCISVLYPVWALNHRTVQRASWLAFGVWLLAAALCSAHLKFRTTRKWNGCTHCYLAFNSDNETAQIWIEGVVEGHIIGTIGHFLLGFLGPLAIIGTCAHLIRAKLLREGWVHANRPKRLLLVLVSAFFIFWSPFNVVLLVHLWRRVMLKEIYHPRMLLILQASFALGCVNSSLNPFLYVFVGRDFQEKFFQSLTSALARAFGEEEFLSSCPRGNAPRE
For the compound `Cc1nc2c(-c3ccccc3)c(C)nn2c(C)c1CCC(=O)N1CCN(c2ccccc2)CC1`, the activation was inactive: -1.78%.

As to `COc1ccc(C(=O)COC(=O)c2cc(-c3ccccc3)nc3c(C)cccc23)cc1`, the activation is inactive: -7.48%. For the compound `O=C1CCc2cc(S(=O)(=O)NCc3ccc(F)cc3)cc3c2N1CC3`, the activation is inactive: 26.2%. Consider `Cc1ccc(Cc2nc3ccccc3nc2SCC(=O)N2CCN(c3ccccc3F)CC2)cc1`, for which the activation was inactive: -11.7%. To `CCCS(=O)(=O)c1ncc(Cl)c(C(=O)Nc2c(C(=O)c3ccccc3)oc3ccccc23)n1` belongs inactive: 8.57%. Turning to `CCCCCn1c(NCc2ccccc2OC)nc2ccccc21`, the activation is inactive: 10.1%. As to `CCc1cc2c(cc3c(=O)n(CC(=O)N4CCC(C)CC4)nc(CC)n32)s1`, the activation is inactive: -2.53%.

For `NCCCNCCSP(=O)(O)O`, the activation is inactive: -5.07% and inactive: 1.57%. For the compound `Cn1nc(C(=O)N2CCN(c3cccc(Cl)c3)CC2)c2c1-c1ccccc1S(=O)(=O)C2`, the activation is inactive: -14.9%. For the compound `O=C(Nc1nnc(S(=O)(=O)N2CCOCC2)s1)c1cccc(F)c1`, the activation was inactive: 49.3%. For the compound `CCS(=O)(=O)N1CCc2cc(C(=O)Nc3ccc(C)c(Cl)c3)ccc21`, the activation is inactive: 15.7%. For the compound `CCCCOc1ccc(C(=O)NCC2(N3CCN(C)CC3)CCCCC2)cc1`, the activation was inactive: -9.84%. Regarding `CCc1ccc(-n2c(=O)c3ccc(C(=O)NCCc4ccccc4)cc3n(CC(N)=O)c2=O)cc1`, the activation is inactive: -5.07%. As to `Cc1ccc2c(c1)C(c1ccccc1)N(C(=O)c1ccc(OC(C)C)cc1)CC(=O)N2` (stereo not given), the activation is inactive: -15.1%.

For the compound `Cc1c2cnn(-c3ccccc3)c(=O)c2c(C)n1CC(=O)NCc1ccccc1Br`, the activation is inactive: -13.8%. As for `Cc1cccc(CCNC(=O)Cn2ncc3c(=O)oc4ccccc4c32)c1`, the activation is inactive: 30.7%. With `CC(=O)c1cccc(NC(=O)C(Cc2ccccc2)NS(=O)(=O)c2ccc(Br)s2)c1` (stereo not given), the activation is inactive: 33.5%.

For the compound `O=C(Nc1ccc(Cl)cc1)N1CCC(CN2CCCC2)CC1`, the activation was inactive: -18.9%.

As to `CCOC(=O)C1CCN(c2nc(-c3ccc(Br)cc3)nc3ccccc23)CC1`, the activation was inactive: -14.9%. With `COc1ccc(OC)c(NC(=O)c2cn3c4c(ccc(Cl)c4c2=O)OC(C)C3)c1` (stereo not given), the activation is inactive: 17%.

For `COc1ccc(Cn2cc(C(=O)c3ccc(OC)cc3)c(=O)c3cc4c(cc32)OCCO4)cc1`, the activation was inactive: 17.4%. For the compound `CCOc1ccc(NC(=O)Cc2coc3ccc(C)cc23)cc1`, the activation was inactive: 10.4%.

On to `COc1ccc(-c2cc(C(F)F)n3ncc(C(=O)Nc4cc(OC)ccc4OC)c3n2)cc1`, for which the activation is inactive: -3.65%. `CCc1cnc2c(c1SCC(=O)Nc1ccc(Cl)cc1)c(=O)n(C)c(=O)n2C`: the activation is inactive: -9.74%. For the compound `CC(COc1ccccc1)NC(C)C(O)c1ccc(O)cc1` (stereo not given), the activation is inactive: 8.04%.
